# From the supplement of paper PMC9938546
# Counter-ions that a name gives are not always drawn. Some of the results follow. Repeats are few or missing, and single values can be far off.
# Test system: HCT116-GFP
# Assay: HCT116-GFP viability (GFP intensity) relative to untreated control, monoculture; higher = less cancer cell killing
# Details: culture: HCT116-GFP monoculture; 10 µM; 72 h
# 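Also: viability estimated indirectly by image-based GFP quantification with live-cell imaging of the constitutively GFP-expressing human colorectal cancer line, no immune cells added.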
row,SMILES,HCT116-GFP viability
1,CO/N=C(\C(=O)N[C@@H]1C(=O)N2C(C(=O)O)=C(COC(C)=O)CS[C@H]12)c1csc(N)n1 [Cefotaxime sodium salt],98.1%
2,CCCCOc1cc(C(=O)OCCN(CC)CC)ccc1N [Benoxinate hydrochloride],93.8%
3,Cc1cc2cc3c(C)cc(=O)oc3c(C)c2o1 [Trioxsalen],89.8%
4,CC(=O)Nc1nnc(S(N)(=O)=O)s1 [Acetazolamide],115%
5,CC(C)Oc1ccc2c(=O)c(-c3ccccc3)coc2c1 [Ipriflavone],96.6%
6,Clc1ccc2nsnc2c1NC1=NCCN1 [Tizanidine hydrochloride],107%
7,NNC(=O)c1ccncc1 [Isoniazid],92.2%
8,CC1(C)O[C@@H]2C[C@H]3[C@@H]4C[C@H](F)C5=CC(=O)CC[C@]5(C)[C@H]4[C@@H](O)C[C@]3(C)[C@]2(C(=O)CO)O1 [Flurandrenolide],100%
9,CCCCc1oc2ccccc2c1C(=O)c1cc(I)c(OCCN(CC)CC)c(I)c1 [Amiodarone hydrochloride],65.1%
10,O=C(O)c1cccnc1 [Niacin],95.8%
11,Cc1cccc(N(C)C(=S)Oc2ccc3ccccc3c2)c1 [Tolnaftate],101%
12,O=c1[nH]c(=O)n([C@H]2C[C@H](O)[C@@H](CO)O2)cc1I [Idoxuridine],58.5%
13,COc1ccc(-c2ccc3cc(C(=O)O)ccc3c2)cc1C12CC3CC(CC(C3)C1)C2 [Adapalene],11.5%
14,CCN1CCCC1CNC(=O)c1cc(S(N)(=O)=O)ccc1OC (configuration not stated) [Sulpiride],100%
15,CC12CC3CC(C)(C1)CC(N)(C3)C2 [Memantine Hydrochloride],109%
16,C#C[C@]1(O)CC[C@H]2[C@@H]3CCC4=Cc5oncc5C[C@]4(C)[C@H]3CC[C@@]21C [Danazol],83.4%
17,CCOc1ccc(Cc2nccc3cc(OCC)c(OCC)cc23)cc1OCC [Ethaverine hydrochloride],33%
18,O=C(Nc1ccc([N+](=O)[O-])cc1Cl)c1cc(Cl)ccc1O [Niclosamide],5.97%
19,CN1CCCN=C1/C=C/c1cccs1 [Pyrantel tartrate],105%
20,CCN(CC)CCN[C@@H](C(=O)OCCC(C)C)c1ccccc1 [Camylofine chlorhydrate],102%
21,CCC[C@@H]1C[C@@H](C(=O)N[C@@H]([C@H]2O[C@H](SC)[C@H](O)[C@@H](O)[C@H]2O)[C@@H](C)O)N(C)C1 [Lincomycin hydrochloride],88.1%
22,CC(C)(C)NC(=O)[C@H]1CC[C@H]2[C@@H]3CC[C@H]4NC(=O)C=C[C@]4(C)[C@H]3CC[C@]12C [Finasteride],97.3%
